# Results: PubChem BioAssay AID686978 (National Center for Advancing Translational Sciences (NCATS), 2013)
# Values joined by “and” are separate entries in the source; they are usually repeats but may differ in a detail not shown here. Identical values can stand only once. In all, about 420,000 compounds went through this assay and about 64,000 (15%) were called active. This list was built around the results that the source calls inconclusive (neither active nor inactive); the mix of calls is not that of the screen. Calls come from the whole dose curve; as a rule, active = well fitted inhibition curve with a large enough effect; inconclusive = small, poorly fitted or top-dose-only effect; inactive = flat fitted curve, though single readings scatter. No potency is given beside an inconclusive call; the fits are too rough.
# Assay: qHTS for Inhibitors of human tyrosyl-DNA phosphodiesterase 1 (TDP1): qHTS in cells in absence of CPT; note: nearly all actives have a fitted effect of over 55% in size
# Conditions: DT40 Tdp1-/- hTDP1 cells, no CPT, ATP luminescence, 48 h; activity change, negative = growth inhibition: at 46.2 µM (top of the series) unless noted
# Outline: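 Chicken DT40 Tdp1-/- cells stably complemented with human TDP1 were seeded at 400 cells/well with DMSO in place of 20 nM camptothecin. After compound pinning, cells grew at least 48 hr at 37 °C; viability read by CellTiter-Glo luminescence.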
# % is set by controls: 0 for no effect and ±100 for the full control effect; potency is the fitted concentration of half-maximal effect; tags give direction and shape of the fitted curve.
SMILES,"activity change, negative = growth inhibition",Potency
CC(=O)N1CCN(C(=O)C2CCN(S(=O)(=O)c3ccccc3C(F)(F)F)CC2)CC1,inactive: -14.6%,
COc1ccc2c(c1)CC(C1(O)C(=O)N(C)c3ccccc31)C2=O (centres undefined),,"inconclusive [inhibitor, single point]"
COC(=O)c1cc(S(=O)(=O)N2CCN(c3cc(Cl)ccc3C)CC2)c[nH]1,,"inconclusive [inhibitor, partial curve]"
Nc1ccc2ccccc2c1N=Nc1ccccc1,,"inconclusive [inhibitor, single point]"
Cc1ccc(C2(O)CN(c3ccccc3)C3=[N+]2CCS3)cc1 (centres undefined),,"inconclusive [inhibitor, single point]"
CCN(CC)c1ccc(NC(=O)Cn2c3ncccc3c(=O)n2-c2ccccc2)c(C)c1,,"inconclusive [inhibitor, single point]"
Cc1ccc(C(=O)NCCC(C)C)cc1NC(=O)c1nsc2ccccc12,,"inconclusive [inhibitor, single point]"
COc1ccc([C@H]2CC(=O)C[C@@H](CCn3cccn3)O2)cc1,inactive: -9.27%,
CC1(C)CC(N=C2C([N+](=O)[O-])=CC=C3C2=NC2(CCCCC2)N3O)CC(C)(C)N1,inactive: -0.406%,
O=C(CN1CCN(C(=O)c2cc(C3CC3)nn2-c2ccccc2)CC1)Nc1ccc(F)cc1,,"inconclusive [inhibitor, single point]"
CCOC(=O)c1ccc(Nc2ccc(C(C)=O)cc2)cc1,,"inconclusive [inhibitor, single point]"
CCCCn1c(N)c(N(CC)C(=O)c2ccc(Cl)c(Cl)c2)c(=O)[nH]c1=O,inconclusive: -31.5% [inhibitor],
CC(=O)Nc1nn(C)c2nc3cc(C)ccc3cc12,,"inconclusive [inhibitor, single point]"
COc1ccccc1CNc1ncnc2c1c(-c1ccccc1)cn2-c1ccc(Br)cc1,,"inconclusive [inhibitor, single point]"
CN1CCN(CCCNC(=O)c2ccc(/C=C3/Sc4ccccc4N(Cc4cccc(Cl)c4)C3=O)cc2)CC1,,"inconclusive [inhibitor, single point]"
O=C(Nc1cccc(S(=O)(=O)C(F)F)c1)c1ccc(S(=O)(=O)N2CCCCC2)cc1,,"inconclusive [inhibitor, single point]"
CCCN(C(=O)CSc1nnc2ccccn12)C1CCS(=O)(=O)C1 (centres undefined),inactive: 2.73%,
COc1ccc(-c2ccc(-c3nc4ccc(C)cn4c3NC3CCCCC3)cc2OC)cc1,,active: 8.2 µM and active: 13 µM
Cc1cc(C)c2c(n1)nn1c(NCCCN3CCOCC3)cc(C)nc21,inactive: -1.7%,
Nc1nc(Nc2ccccc2)nc(NCc2ccccc2)c1[N+](=O)[O-],,"inconclusive [inhibitor, single point]"
COc1cc(OC)c(OC)cc1/C=C/C(=O)OCC(=O)Nc1c(C)n(C)n(-c2ccccc2)c1=O,,active: 1.03 µM
CC(O)(c1cccnc1)c1nc(-c2cccc3cccnc23)cs1 (centres undefined),,"inconclusive [inhibitor, single point]"

SMILES,"activity change, negative = growth inhibition",Potency
O=C(Nc1ccccc1N1CCCC1)C1CCN(S(=O)(=O)c2ccc(F)cc2)CC1,,"inconclusive [inhibitor, partial curve]"
COc1ccc(NC(=O)/C(=C/c2cccnc2)NC(=O)c2cccs2)cc1,inactive: -11.8%,
Cc1ccc(NC(=O)N2CCN(C)CC2)cc1NC(=O)N1CCN(C)CC1,inactive: 4.37%,
CCOc1ccccc1C(=O)N1CCN(c2ccc(C(F)(F)F)cn2)CC1,,"inconclusive [inhibitor, single point]"
CCc1ccc2c(c1)[C@H]1OCC[C@H]1[C@@H](c1cccs1)N2,,active: 7.31 µM
CS(=O)(=O)N(CC(=O)N/N=C/c1cc([N+](=O)[O-])ccc1Cl)c1ccccc1,,active: 18.4 µM
COc1ccc(OCCOc2ccc(S(=O)(=O)N3CCCC3)cc2C(N)=O)cc1,,"inconclusive [inhibitor, single point]"
CCC1CCCCN1C(=O)Cn1c(C(=O)OC)cc2sc(Cl)cc21 (centres undefined),,"inconclusive [inhibitor, single point]"
CCOC(=O)N1CCN(C(=O)COC(=O)c2cc(Cl)c(O)c(Cl)c2)CC1,,"inconclusive [inhibitor, single point]"
COc1ccccc1CNC(=O)CN(C)Cc1ccc(SC)cc1,,active: 23.1 µM
COc1cc2c(cc1OC)-c1nnc(-c3cccs3)n1C(C)(C)C2,,"inconclusive [inhibitor, single point]"
OCCNCc1ccc(-c2ccccc2)cc1,,"inconclusive [inhibitor, single point]"
COc1ccccc1-c1cc(N)n(S(=O)(=O)c2cccc3nsnc23)n1,,"inconclusive [inhibitor, partial curve]"
Cc1ccc2c(C)c(C(=O)N3CCC(c4nc5ccccc5s4)CC3)oc2c1C,,"inconclusive [inhibitor, single point]"
CCn1c(SC)nnc1C1CCN(CC(=O)Nc2ccccc2N2CCOCC2)CC1,,"inconclusive [inhibitor, single point]"
N#Cc1cccc(NC(=O)CNc2cccc(S(=O)(=O)N3CCCC3)c2)c1,,"inconclusive [inhibitor, partial curve, poor fit]"
O=C(COc1ccc(Cl)cc1)NCc1nnc(SCC(=O)N2CCCCCC2)o1,inactive: -6.06%,
COc1ccc(Cl)cc1NC(=S)NCc1cccnc1,,"inconclusive [inhibitor, single point]"
O=C(NCC(=O)N(c1ccc2c(c1)OCO2)C(C(=O)NC1CCCC1)c1ccncc1)c1ccco1 (centres undefined),,active: 23.1 µM
COc1ccc(C2C=C(c3ccccc3)Nc3nc(NS(=O)(=O)c4ccc(C)cc4)nn32)cc1 (centres undefined),inactive: -19.1%,
Cc1nc(N2CCN(C(=O)c3ccco3)CC2)c2oc3ccccc3c2n1,,active: 20.6 µM
CN(CC(=O)Nc1cccc(F)c1)CC(=O)Nc1ccccc1[N+](=O)[O-],,active: 11.6 µM
